The record followed here is the RNAGym collection of RNA variant scans (doi:10.1093/nar/gkz1192).

To fix the notation:
B1: CPEB3 Ribozyme (parent)
chain: UAACAGGGGGCCACAGCAGAAGCGUUCACGUCGCAGCCCCUGUCAGAUUCUGGUGAAUCUGCGAAUUCUGCUGUAUAUCUC

Read counts are not given, so values of variants with three or more changes are uncertain.

Variants of B1 are the subject of this data set. Description: self-cleavage, relative activity (ratio to wild type); higher = more cleavage; in vitro, sequencing. In short, it runs like this: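 Relative activity compares each variant's cleaved/total read fraction with that of the unmutated ribozyme. To get these fractions, barcoded CPEB3 ribozyme libraries from rounds of error-prone PCR were transcribed with T7 RNA polymerase for 5 hours at 37°C and then given 15 min of DNase I treatment before EDTA was added. The RNAs were reverse transcribed with template switching and sequenced on Illumina, and DNA sequencing linked barcodes to variants. A minimum of 5 reads applied, and three batches were averaged.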
Consider A3G C14U A20U U60A, for which the self-cleavage was found to be 0.12.

As to A3G A47G U69C U80C, the self-cleavage is 0.24.

On to A3G C4U G73C, for which the self-cleavage stood at 1.18.

On to A3G A35G A47U, for which the self-cleavage came out at 1.18.

For the variant A3G C4U A21U U66A, the self-cleavage was found to be 1.06.

For A3G C14A A15U U67C, the self-cleavage is 0.29.

Take A3G A28U U48C A57U U80A: the self-cleavage is 0.2.

For A3G C17U U51C U54A, the self-cleavage was found to be 0.76.

As for A3G A21G U51A G52U U60A, the self-cleavage amounted to 0.65.

Regarding A3G C11G U25C C44U U54A A77C U78C, the self-cleavage was determined as 0.08.

In the case of A3G A28G A47G U49C U54A C71A, the self-cleavage amounted to 0.08.

As for A3G A20U C32U U69C, the self-cleavage was found to be 0.09.

For A3G C23U C34U U67A A77G, the self-cleavage came out at 0.17.

With A3G A21G C38U U58C, the self-cleavage is 0.34.

For the variant A3G A28G C29G A45G U66C U67G, the self-cleavage worked out at 0.08.

For A3G A35G C38U, the self-cleavage is 1.22.

In the case of A3G C4U U25C G53A, the self-cleavage amounted to 0.68.

A3G C11A C14U A56G A57G U69C U78A: the self-cleavage was found to be 0.07.

For the variant A3G A56G U60A, the self-cleavage came to 0.68.

Take A3G C4U U67A: the self-cleavage was determined as 0.79.

As to A3G A35U A45G U69C, the self-cleavage was found to be 0.14.

On to A3G A21G G24A U26C U49G A64G U76A, for which the self-cleavage is 0.07.

Take A3G A21G U54G U60C U67A: the self-cleavage came to 0.11.

For the variant A3G A20G U43C U67A C71U, the self-cleavage worked out at 0.08.

As to A3G A45G U78C, the self-cleavage came to 0.61.

For A3G A21G A28G U54C C71G, the self-cleavage came to 0.13.

On to A3G A21G U51C U60C C68A U76C, for which the self-cleavage is 0.19.

As to A3G A28U U58A C68U, the self-cleavage is 0.24.

Take A3G A47G U54A U72C: the self-cleavage amounted to 1.25.

For the variant A3G C12A A20G U76C, the self-cleavage stood at 1.03.

As for A3G A77U C81A, the self-cleavage was 1.24.

On to A3G C17U U25C A47G, for which the self-cleavage was found to be 0.43.

With A3G C14A U41A A57G U80A, the self-cleavage came to 0.06.

Take A3G A20U U51G U54C U67C: the self-cleavage was determined as 0.35.

In the case of A3G A57C U66C, the self-cleavage came out at 0.72.

For the variant A3G A21G U76C A77U, the self-cleavage is 0.62.

As to A3G C4U U41C U48C U66A U80C, the self-cleavage turned out to be 0.23.

Regarding A3G C11A U31C U49C U72C, the self-cleavage is 0.46.

Consider A3G C4A A15U U72C U80C, for which the self-cleavage came out at 1.16.

With A3G C29G U54C U67A U78A, the self-cleavage was 0.03.

With A3G C23A A47G A75G U78C, the self-cleavage stood at 0.12.

Consider A3G C14A A56U, for which the self-cleavage stood at 1.06.

Turning to A3G A21G U31A U41C, the self-cleavage was 0.52.

For A3G C11G A13G U25C U60C U74A, the self-cleavage came to 0.03.

As to A3G A35U U41C U54C, the self-cleavage came to 0.45.

Turning to A3G C14A A18U A20U U26C U43C U80C, the self-cleavage came to 0.05.

As to A3G A47G U49C A57C, the self-cleavage amounted to 0.71.

For A3G C12A A15G U31C U51A A75U, the self-cleavage is 0.6.

Regarding A3G C12A U26C U31C A57G U72C, the self-cleavage came to 0.35.

With A3G A20G U48C A56G, the self-cleavage was 0.58.

On to A3G A65G U69A, for which the self-cleavage is 0.18.

A3G C11U A13U U31A U41C U49C: the self-cleavage was 0.33.

With A3G C14G U72G A75C U78C, the self-cleavage is 1.13.

As for A3G C11G C40U G52A U80A, the self-cleavage was 0.11.

A3G C4U G10A U78A: the self-cleavage amounted to 0.47.

A3G A35G C50A: the self-cleavage is 1.33.

In the case of A3G A57G U67C A75U, the self-cleavage is 0.38.

As to A3G C17G U54C, the self-cleavage amounted to 0.17.

On to A3G A21G U25C A35G, for which the self-cleavage is 0.62.

With A3G C12U A20G C32A C40U C44G U60C, the self-cleavage was found to be 0.06.

For A3G C11G C14G U26C U66C U80C, the self-cleavage was 0.05.

On to A3G C12G A21G A35U U41C G53C G73A, for which the self-cleavage stood at 0.78.

For the variant A3G A47G U48C U51C U76C U78C, the self-cleavage came out at 0.29.

A3G A28C A45G A57G: the self-cleavage worked out at 0.44.

On to A3G C12U U31C U49C U69C, for which the self-cleavage was 0.23.

As for A3G C4A U26C A28U U43C U51C G55A, the self-cleavage turned out to be 0.33.

As to A3G A47G A56U U80C, the self-cleavage was determined as 0.73.

On to A3G A57G U60C A64U U72C U78C U80A, for which the self-cleavage came out at 0.39.

For A3G C12U A21G U26C A64U, the self-cleavage worked out at 0.12.

As for A3G A21G U60C, the self-cleavage was 0.4.

Take A3G A28G A45G U49C U58C C62G: the self-cleavage was found to be 0.08.

Regarding A3G A35G U41A U49C, the self-cleavage stood at 0.44.

Take A3G A28G U51A U67C: the self-cleavage was found to be 0.45.

With A3G C4U A45U A56U U66A U76G, the self-cleavage worked out at 0.16.

With A3G A47U U78C, the self-cleavage amounted to 0.48.

As for A3G C11G G16C A20G U43A U49C, the self-cleavage turned out to be 0.06.

Regarding A3G A28G C38U U72A, the self-cleavage was found to be 0.34.

On to A3G C11G U48G U80C, for which the self-cleavage turned out to be 0.13.

A3G A35G U67C U80A: the self-cleavage was 1.03.

With A3G C14U A21G U26A A57U U80A, the self-cleavage worked out at 0.95.

For the variant A3G A35G U43C U49C A56U U80C, the self-cleavage stood at 0.31.

Consider A3G A35U U78C U80A, for which the self-cleavage is 0.5.

Consider A3G A64G U67A U80A, for which the self-cleavage was determined as 0.46.
